The results in this text go back to the supplement of paper PMC11417369.

± gives the standard deviation of the averaged measurements. This is one part of the list.

The test system of the assay is PfAP2-I AP2 domain 3 (GST-tagged). Description: gcPBM binding intensity (ln(normalized median fluorescence intensity)); higher = stronger DNA binding. An outline of the steps: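 Each value is the highest Masliner-normalised natural-log median intensity across replicate spots of either orientation of a probe. The probes were primer-extended double-stranded 36-bp intergenic genomic sequences on an Agilent 4 × 180k array, alongside negative controls, exposed for 1 h to GST-tagged P. falciparum DNA-binding domains expressed in E. coli. Bound protein was picked up with Alexa488 anti-GST antibody and scanned at 488 nm.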
With “TAATATTATTATTTTACACACTTTTTTCCTTTTATC [CACACA_site2457]”, the “gcPBM binding intensity (ln)” value came out at 7.66 ± 0.72.

With “AAAGAATTTAAATATTGTACGCAATATATAAAAAAA [XGTACX_site7616]”, the “gcPBM binding intensity (ln)” value stood at 7.88 ± 0.3. As for “ATAATATTATACTTTGCACACATCTGAAATGACATA [CACACA_site3952]”, the figure is 9.02 ± 0.3; as for “TACAATTTGATATATACACACAAATAAATTATGCTT [CACACA_site6534]”, 7.53 ± 0.47.

For “AAAAGTACAATATATATGTATGTGTATAGAATGGTT [TGCATGCA_negctrl_site76]”, the “gcPBM binding intensity (ln)” value was 8.16 ± 0.75.

As for “TTTGATAAAATTGATATCCTATAATTATATAAATAA [GTGCAC_negctrl_site317]”, the “gcPBM binding intensity (ln)” value was determined as 7.52 ± 0.4. For the sequence “AAAAAACAGACATACACACACACACCCATATATATA [CACACA_site3392]”, the “gcPBM binding intensity (ln)” value was determined as 8.29 ± 0.97.

Take “GATAAAATAAAAGTGGGTACTTAAATATATATATAA [XGTACX_site8457]”: the “gcPBM binding intensity (ln)” value amounted to 7.79 ± 0.43. As for “AGAAAAGAAATTAGTTGTACTCTGATGAATTATCCT [XGTACX_site6284]”, the “gcPBM binding intensity (ln)” value stood at 7.56 ± 0.42. For “TACCCAAAGTTACATACACACTAATATTTACACCAT [CACACA_site4709]” the value was 7.99 ± 0.61; for “GATGTTCATCACTACACACACAAAGAAATATAAATA [CACACA_site7294]”, 7.74 ± 0.61; for “TAATAATAGTGAGAGTGTACTTTAAATAAAATATAT [XGTACX_site2850]”, 7.97 ± 0.44.

Turning to “TTCTATATATATATAGACAAACGATAAAATAAAAAA [GTGCAC_negctrl_site142]”, the “gcPBM binding intensity (ln)” value stood at 7.92 ± 0.42.

Turning to “TGAAATGATATATAAACACACATATATAAATATGTA [CACACA_site7616]”, the “gcPBM binding intensity (ln)” value is 7.18 ± 0.37. For “AAATATAATTTGCGATGTACACATATATATTTATTT [XGTACX_site1568]” the value was 7.69 ± 0.52. “AAGAAAAAAAAAAAAAAAAAAAAAAAAAATTTATGA [TGCATGCA_negctrl_site294]”: the “gcPBM binding intensity (ln)” value was found to be 7.39 ± 0.2.

Turning to “CAGTTATTTTAATGTGGTACACAATTTTAAAATTAT [XGTACX_site8571]”, the “gcPBM binding intensity (ln)” value came out at 8.07 ± 0.099. As for “AATTTTATAAAAAGTAGTACATATCAAACACCTTGA [XGTACX_site2297]”, the figure is 8.02 ± 0.28; as for “ATATAAAATGAACATAGTACTTTTTATATATTTTAA [XGTACX_site7461]”, 7.35 ± 0.37; as for “TACCTATACCTATACACACACACACGGAAATAAATA [CACACA_site6750]”, 8.26 ± 0.48. As for “TGACTTTTTTTTTTTTTTTTTTTTTTTTATCTTTTT [CACACA_negctrl_site481]”, the figure is 7.51 ± 0.29; as for “TTATGATTATAACGTTTTGACATTAGGCATATATAT [CACACA_negctrl_site1396]”, 7.68 ± 0.59. As for “TGATGGGACATAAATATTGAGATGATCATAAGATAA [TGCATGCA_negctrl_site276]”, the figure is 7.61 ± 0.85; as for “TATATCATAAAAAATTGTACATATATATATTATATA [XGTACX_site6726]”, 7.63 ± 0.25; as for “AAAGATAATATATGCACACATATAAATATATAAATA [CACACA_site3477]”, 9.21 ± 0.35. With “AAAAAAAAAAAAAGTACACACTTTTGCGTACAAGTA [CACACA_site5672]”, the “gcPBM binding intensity (ln)” value was 8.09 ± 0.34.

“TATTTATTATATAAATGTACATAATATATGTATGTC [XGTACX_site2815]”: the “gcPBM binding intensity (ln)” value was found to be 7.7 ± 0.36. As for “GGATAAGATGTATATACACACAATTTAAAAAAATAA [CACACA_site910]”, the figure is 7.88 ± 0.71; as for “GTGTAATTTATTGTGTTGCACTTTTTTTTTTTTTTT [GTGCAC_site9644]”, 9.37 ± 0.22. As for “AATACAATTTTTAACACACACACAATAATACAGATA [CACACA_site4823]”, the figure is 8.01 ± 0.33; as for “TTAATATAGGAATATGCACACATATATACATACATA [CACACA_site8432]”, 8.78 ± 0.057; as for “AAGATAGACTCATATGCATGCATTCACATACCAACA [TGCATGCA_site179]”, 8.19 ± 0.84.

“TTTAATTTGTTATACACACACAAAAAAAATTATAAA [CACACA_site3937]”: the “gcPBM binding intensity (ln)” value worked out at 7.8 ± 0.35. As to “ATTCTATATTTAAATGCATGCACTTTCTATTTTTTT [TGCATGCA_site435]”, the “gcPBM binding intensity (ln)” value was found to be 8.47 ± 0.79.

As for “GACACTTTGAAGGGTACATGCAGAAAAAAAAAAAAA [TGCATGCA_site89]”, the “gcPBM binding intensity (ln)” value was 8.37 ± 0.81.

In the case of “TTTTATTTATCTAATTGTACTCATTCTTTTTTGATG [XGTACX_site2876]”, the “gcPBM binding intensity (ln)” value stood at 7.76 ± 0.27. As for “GCTAAAAGTATATGCACACACATATAGATGCACATA [CACACA_site6868]”, the figure is 10 ± 0.14; as for “TTTTAAAAAAAAAAAAAAAAAATTAAAATAATTCAA [TGCATGCA_negctrl_site69]”, 6.97 ± 0.47; as for “ATAAAATAATTAATGGGTACATAATTAAATAAAGAG [XGTACX_site3309]”, 8.24 ± 0.44. For “AATGTGCCCACGCGTACACACAAAAAAAGAAAAAAA [CACACA_site2003]” the value was 8.31 ± 0.17; for “CATACATAGAAACACACACACACACCCACCCACAAA [CACACA_site494]”, 8.4 ± 0.65; for “ATATATATATATCATAGTACACATATGTGTCTCGTG [XGTACX_site774]”, 9.14 ± 0.11.

On to “TTGTTATAGAAGCATTCACACACACCCATACATACA [CACACA_site8414]”, for which the “gcPBM binding intensity (ln)” value was 8.2 ± 0.099. For “AAGTTAACAATATGAAGTACAAATGAAAAAAAAAAA [XGTACX_site666]” the value was 8.18 ± 0.73.
